Reference: PMC10668032
Some of the results follow. At the low end of the ranking, values are background and their order means little.

target: SIX1-Q177R homeodomain (UniProt Q15475); experiment: universal protein binding microarray; conditions: Universal all-10-mer PBM (8x60K, AMADID 030236), 300 nM GST-tagged protein, Alexa Fluor 488 anti-GST; buffer, salt, pH and temperature not stated; high values mean tight binding; most listed sequences are background and not binding sites; double strand, one strand shown

Sequence	binding signal
ATATACTG	-0.0962 E-score
CAGTTCTC	-0.0947 E-score
CATCGGAG	0.111 E-score
ATTCAGAC	-0.229 E-score
ATTCGGGC	-0.168 E-score
GGGGCTTA	0.029 E-score
CTTCATAC	-0.0249 E-score
CTTTTCGA	-0.0831 E-score
GCACAGCC	-0.0402 E-score
CGACAACC	0.0156 E-score
CGGCTACG	0.164 E-score
GACCCGAA	-0.0852 E-score
CTCAATTC	-0.152 E-score
TCAATCCA	0.028 E-score
CTTTGTGA	0.00549 E-score
ATCTTCAA	-0.0367 E-score
ATGAAACA	0.0085 E-score
ACTATTCT	0.0559 E-score
CTAATAGA	0.0326 E-score
CGATGTAC	0.254 E-score
AAGCTGAA	-0.229 E-score
AGTAACCA	-0.0886 E-score

Sequence	binding signal
GAGCGCTC	-0.36 E-score
ATGTAGTA	-0.0878 E-score
AGTCTGTC	-0.298 E-score
CTACGCAA	-0.133 E-score
ACCAGGTC	-0.0954 E-score
AGGGCCAA	-0.143 E-score
CTCTAAGA	-0.00164 E-score
CCTTTGCC	0.0262 E-score
CAAGAGTA	0.17 E-score
TAGGTTAA	0.0604 E-score
CAAACTCA	0.0247 E-score
ATCCGTCG	0.073 E-score
TCGGTCCA	-0.23 E-score
ACCGTCAA	-0.119 E-score
TGCGGACA	-0.0429 E-score
CCCATCCG	0.198 E-score
CGGACAAA	-0.0621 E-score
CCGATAAC	0.106 E-score
CGAATGTC	-0.0209 E-score
GCGTGGAA	-0.19 E-score
CGATGAAC	-0.0244 E-score
GTGAAGGA	-0.0293 E-score

Sequence	binding signal
ACCTTAGT	-0.0401 E-score
AAAGAGTA	-0.0397 E-score
TACCCAGA	0.144 E-score
ACCAACCT	-0.0408 E-score
CAAAGAAC	-0.0342 E-score
CTTACTAA	-0.103 E-score
GAATCACA	0.12 E-score
CCAATTAC	0.126 E-score
TCGACTAA	0.0692 E-score
AGTTCGTG	0.147 E-score
AAACTAGA	0.163 E-score
AGACAGAT	-0.271 E-score
AGAGGCGC	-0.123 E-score
AAAGTGGT	0.00153 E-score
AAGAAATG	-0.16 E-score
ACGTAGGA	-0.129 E-score
GGCCGTCA	-0.323 E-score
AACTGGAT	-0.193 E-score
GTTTAGGA	-0.0495 E-score
GAACATTC	-0.322 E-score
CGTGTGTA	0.296 E-score
AGCGCTTA	0.0112 E-score

Sequence	binding signal
AGCAGTTG	-0.203 E-score
CACTCCGG	0.344 E-score
GAGTGATA	0.0935 E-score
AACCCTTG	0.0963 E-score
CCCTCCGC	0.149 E-score
CTACTTTC	-0.303 E-score
CCGGGGCA	0.0344 E-score
GGATCACA	0.168 E-score
CACCGATC	0.26 E-score
CAGGGAGC	-0.0688 E-score
TAGTACCA	-0.0137 E-score
CTCGTGGA	-0.0361 E-score
GGAAGAAC	0.091 E-score
AAGTTTGA	-0.188 E-score
CCAGTAGC	-0.0582 E-score
ATAAGGTA	0.12 E-score
AATGAACG	0.0143 E-score
AAATGCCG	-0.0898 E-score
CAGATCCC	0.186 E-score
CCATAACG	-0.0929 E-score
